Results taken from PubChem BioAssay AID1030 (National Center for Advancing Translational Sciences (NCATS), 2008).
Where “and” joins values, the source holds several entries; their conditions need not be identical. Equal values may be shown once. Screen size: about 220,000 compounds; about 16,000 (7.3%) were called active. This list was built around the results that the source calls inconclusive (neither active nor inactive); the mix of calls is not that of the screen. Calls come from the whole dose curve; as a rule, active = well fitted inhibition curve with a large enough effect (not every such curve was filed as active); inconclusive = small, poorly fitted or top-dose-only effect, or another doubt; inactive = no such curve, though single readings can be large or run the other way. Potencies of inconclusive entries are doubtful fits and often do not repeat.

The molecules below were run against Aldehyde dehydrogenase 1A1 (Homo sapiens) (UniProt P00352) (assay: qHTS Assay for Inhibitors of Aldehyde Dehydrogenase 1 (ALDH1A1)). Conditions: Purified ALDH1A1, NADH fluorescence, propionaldehyde substrate; series mostly up to 75.3 µM; activity, negative = inhibition: at the top concentration.
Potency is the fitted concentration of half-maximal effect; tags give direction and shape of the fitted curve.
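Throughout, for activity, negative = inhibition: plate controls were no enzyme wells and a reference inhibitor.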

Chain of UniProt P00352 (P00352 whole entry, looked up): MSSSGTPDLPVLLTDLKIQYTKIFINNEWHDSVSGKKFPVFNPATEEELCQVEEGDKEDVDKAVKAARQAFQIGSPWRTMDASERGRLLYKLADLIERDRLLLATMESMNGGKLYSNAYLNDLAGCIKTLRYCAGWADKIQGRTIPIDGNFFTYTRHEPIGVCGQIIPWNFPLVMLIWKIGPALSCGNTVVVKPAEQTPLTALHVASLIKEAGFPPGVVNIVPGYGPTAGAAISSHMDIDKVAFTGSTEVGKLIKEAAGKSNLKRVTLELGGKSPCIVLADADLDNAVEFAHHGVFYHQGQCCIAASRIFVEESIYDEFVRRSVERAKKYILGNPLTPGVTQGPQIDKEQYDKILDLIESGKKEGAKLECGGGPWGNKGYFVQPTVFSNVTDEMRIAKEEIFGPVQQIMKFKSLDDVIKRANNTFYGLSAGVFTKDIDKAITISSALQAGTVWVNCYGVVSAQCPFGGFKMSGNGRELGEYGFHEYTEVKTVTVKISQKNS

Question: `CC(C)(C)OC(=O)N1Cc2ccccc2C[C@H]1C(=O)O` was tested. Which “activity, negative = inhibition” value did it give?
Answer: inactive: 2.86%

Question: With `O=C(COC(=O)c1cc(=O)[nH]c2ccccc12)Nc1nc(-c2ccccc2)cs1` as the molecule, how does the Potency read?
Answer: inconclusive: 22.4 µM [inhibitor, single point]

Question: `CCOc1ccc(NC(=S)NNC(=O)c2cc(Br)ccc2Cl)cc1` was tested. Which Potency did it give?
Answer: active: 12.6 µM

Question: How did the Potency turn out when `CSc1ccc(/C=N/NC(=O)CN2CCN(Cc3ccc(Cl)cc3)CC2)cc1` was run?
Answer: inconclusive: 2 µM [inhibitor, partial curve]

Question: With `O=C(CNS(=O)(=O)c1ccc(Br)s1)N1CCN(C(=O)c2ccco2)CC1` as the molecule, how does the Potency read?
Answer: active: 39.8 µM

Question: Which Potency does the source give for `CC(=O)OC1c2c(ccc3ccc(=O)oc23)OC(C)(C)C1OC(=O)CC(C)C` (centres undefined) here?
Answer: inconclusive: 39.8 µM [inhibitor, single point] and inconclusive: 37.7 µM [inhibitor, single point]

Question: `Cc1ccc(OCC(=O)N2CCN(C(=O)c3cccs3)CC2)cc1` was tested. Which Potency did it give?
Answer: inconclusive: 39.8 µM [inhibitor, single point]

Question: For `CCCn1c(SCC(=O)Nc2ccccc2N2CCCCC2)nc2c1c(=O)n(C)c(=O)n2C`, which “activity, negative = inhibition” value is on record?
Answer: inactive: -3.78%

Question: For `COc1ccc(NC(=O)C2CCN(c3nnnn3-c3ccccc3)CC2)cc1`, which Potency is on record?
Answer: active: 12.6 µM

Question: How did the Potency turn out when `O=[N+]([O-])c1cc(-c2ccc(/C=N/c3nc4ccccn4c3-c3ccco3)o2)ccc1Cl` was run?
Answer: inconclusive: 35.5 µM [inhibitor, single point]

Question: How did the Potency turn out when `CCOC(=O)c1sc(NC(=O)c2ccc(OC(C)=O)cc2)nc1C` was run?
Answer: inconclusive: 31.6 µM [inhibitor, partial curve]

Question: For `COc1ccc(CNS(=O)(=O)NCc2ccc(C)cc2)cc1OC`, which “activity, negative = inhibition” value is on record?
Answer: inactive: 0.0955%

Question: With `Cc1ccc2c(c1)C(C)(C)[C@]1(C)NC(=O)CCN21` as the molecule, how does the Potency read?
Answer: active: 39.8 µM

Question: `Cc1ccc(Cn2ncc3c(N4CCN(Cc5ccc(Cl)cc5)CC4)ncnc32)cc1` was tested. Which Potency did it give?
Answer: inconclusive: 1 µM [inhibitor, full curve]

Question: With `COc1ccnc(Oc2ccccc2)c1C(=O)N/C=N/OCc1ccc(F)cc1Cl` as the molecule, how does the Potency read?
Answer: inconclusive: 17.8 µM [inhibitor, partial curve]

Question: How did the Potency turn out when `Cc1cc2cc(CNC(=S)Nc3ccc(OC(F)F)cc3)ccc2n1C` was run?
Answer: inconclusive: 2.82 µM [inhibitor, full curve, poor fit]

Question: Which Potency does the source give for `CCOC(=O)c1ccc(S(=O)(=O)Nc2nc3cc(S(=O)(=O)NC4=NCCCCC4)ccc3s2)cc1` here?
Answer: active: 25.1 µM

Question: How did the Potency turn out when `O=C(C1CCN(S(=O)(=O)c2cccc3cccnc23)CC1)N1CCc2ccccc21` was run?
Answer: inconclusive: 39.8 µM [inhibitor, single point]

Question: `COc1ccc(Cc2nc(-c3ccc(NC(=O)c4cccnc4)cc3)no2)cc1` was tested. Which “activity, negative = inhibition” value did it give?
Answer: inactive: 12.1%

Question: `c1ccc2c(c1)C(=NCC1CCCO1)NC2=NCC1CCCO1` (centres undefined) was tested. Which Potency did it give?
Answer: inconclusive: 31.6 µM [inhibitor, single point]

Question: How did the Potency turn out when `Cc1ccc2nsnc2c1S(=O)(=O)N(Cc1ccco1)Cc1cc2ccc(C)c(C)c2[nH]c1=O` was run?
Answer: inconclusive: 39.8 µM [inhibitor, single point]

Question: With `O=c1c2c3c(sc2nc2n1CCCCC2)CCCC3` as the molecule, how does the Potency read?
Answer: active: 35.5 µM

Question: `O=C(c1cc2ccccc2oc1=O)N(Cc1cccs1)Cc1cccs1` was tested. Which Potency did it give?
Answer: active: 11.2 µM

Question: Which “activity, negative = inhibition” value does the source give for `Cn1c(NC(=O)c2ccccc2)cc(=O)n(C)c1=O` here?
Answer: inactive: 8.64%

Question: For `Cc1ccc(C(=O)N2CCN(c3ccccc3)CC2)cc1C`, which Potency is on record?
Answer: inconclusive: 28.2 µM [inhibitor, single point]

Question: For `CCCCN1C(=O)/C(=C2/C=CC=CN2C)SC1=S`, which Potency is on record?
Answer: active: 22.4 µM

Question: For `CC(=O)Nc1ccc(C2NC(C(=O)O)CCC2C)cc1` (centres undefined), which activity, negative = inhibition is on record?
Answer: inactive: 3.1% [at 13.5 µM]

Question: Which Potency does the source give for `Cc1ccc(C(=O)O/N=C(\c2ccccc2)c2cccnc2)cc1` here?
Answer: inconclusive: 20 µM [inhibitor, partial curve]

Question: For `COc1ccccc1CNc1nc2nc(C)c(C)c(=O)n2[nH]1`, which Potency is on record?
Answer: inconclusive: 4.74 µM [inhibitor, single point]

Question: Which Potency does the source give for `COc1ccc2c(CC(=O)OCC(=O)Nc3ccccc3[N+](=O)[O-])coc2c1` here?
Answer: inconclusive: 10 µM [inhibitor, partial curve]

Question: How did the Potency turn out when `O=C(NCCc1ccccc1)c1noc2c1CCCCC2` was run?
Answer: inconclusive: 25.1 µM [inhibitor, partial curve]

Question: `C=CCn1c(=O)/c(=C/c2ccc(C)o2)s/c1=C(/C#N)C(=O)c1ccccc1` was tested. Which Potency did it give?
Answer: active: 0.708 µM

Question: `CC(C)(C)c1ccc(NC(=O)COC(=O)c2ccc([N+](=O)[O-])s2)cc1` was tested. Which Potency did it give?
Answer: inconclusive: 25.1 µM [inhibitor, single point]

Question: Which “activity, negative = inhibition” value does the source give for `CCCCc1ncc(CN2CCN(Cc3ccc(C)cc3)C(CCO)C2)[nH]1` (centres undefined) here?
Answer: inactive: 4.52%

Question: How did the Potency turn out when `O=C1/C(=C\c2ccncc2)SC(=S)N1C1CCCCC1` was run?
Answer: inconclusive: 14.1 µM [inhibitor, partial curve]

Question: `NC[C@H]1O[C@H](n2cnc3c(N)ncnc32)C[C@@H]1O` was tested. Which activity, negative = inhibition did it give?
Answer: inactive: -6.03% [at 13.5 µM]

Question: How did the Potency turn out when `Cc1ccc(-c2nn3c(C)nnc3s2)cc1NC(=O)c1ccc(Br)o1` was run?
Answer: inconclusive: 39.8 µM [inhibitor, single point]

Question: How did the Potency turn out when `C=CCN(CC=C)c1cnn(-c2nc3ccccc3[nH]2)c(=O)c1Cl` was run?
Answer: inconclusive: 31.6 µM [inhibitor, partial curve]

Question: `COC(=O)c1ccc(C)c(-n2c(C)cc(C=O)c2C)c1` was tested. Which Potency did it give?
Answer: active: 1.78 µM

Question: With `COc1cc(/C=N/O)ccc1OCc1ccc(Cl)cc1` as the molecule, how does the Potency read?
Answer: inconclusive: 44.7 µM [inhibitor, single point]

Question: Which Potency does the source give for `CC1=CC(C)(C)Nc2ccccc21` here?
Answer: inactive and inconclusive: 39.8 µM [inhibitor, single point] and inconclusive: 37.7 µM [inhibitor, single point]

Question: How did the Potency turn out when `COCCN1C(=O)c2oc3ccccc3c(=O)c2C1c1cccc(O)c1` (centres undefined) was run?
Answer: inconclusive: 12.6 µM [inhibitor, partial curve]

Question: `Cc1nc2ccccn2c1C(=O)NC1CCCCC1` was tested. Which Potency did it give?
Answer: inconclusive: 28.2 µM [inhibitor, partial curve]

Question: `CC[C@@H](C)[C@@H](CO[C@@H](Cc1ccccc1)C(=O)N[C@@H](CCS(C)(=O)=O)C(=O)OC(C)C)NC[C@@H](N)CS` was tested. Which Potency did it give?
Answer: active: 15.8 µM

Question: How did the Potency turn out when `CCOC(=O)C(=O)C1(C(=O)OCC)Oc2cc(OC)cc(OC)c2C(=O)C1c1ccccc1` (centres undefined) was run?
Answer: active: 10 µM

Question: With `N#C/C(=C(/O)CCl)c1nc2ccccc2[nH]1` as the molecule, how does the “activity, negative = inhibition” value read?
Answer: inactive: -7.33%

Question: `COCCn1c(C23CC4CC(CC(C4)C2)C3)n[nH]c1=S` was tested. Which “activity, negative = inhibition” value did it give?
Answer: inactive: -101%

Question: For `CC(=O)Nc1ccc(N2CCCC2)cc1`, which Potency is on record?
Answer: inconclusive: 39.8 µM [inhibitor, single point]

Question: For `CC(C)(C)OCC(O)CN1CCN(C(=O)c2ccccc2)CC1` (centres undefined), which Potency is on record?
Answer: inconclusive: 39.8 µM [inhibitor, single point]

Question: `O=C1c2cccc3cccc(c23)C(=O)N1c1nncs1` was tested. Which Potency did it give?
Answer: inconclusive: 39.8 µM [inhibitor, single point]

Question: For `CC[n+]1c(/C=C2/C=C(C)CC(C)C2)sc2ccccc21` (centres undefined), which Potency is on record?
Answer: inconclusive: 35.5 µM [inhibitor, single point]

Question: How did the “activity, negative = inhibition” value turn out when `Cc1cccc(N2CCN(C(=O)CC(NC(=O)c3ccccc3)c3ccccc3)CC2C)c1` (centres undefined) was run?
Answer: inactive: -9.43%

Question: With `COCCn1c(=O)c(-c2cccc(C#N)c2)nc2cnc(Oc3cccc(Cl)c3)nc21` as the molecule, how does the Potency read?
Answer: inconclusive: 31.6 µM [inhibitor, partial curve]

Question: For `CCCOc1ccc(OCCN2CCCC(C)C2)cc1` (centres undefined), which Potency is on record?
Answer: inconclusive: 37.7 µM [inhibitor, single point]

Question: For `Cc1ccc(-n2ncc3c(=O)n(Cc4ccccn4)cnc32)cc1C`, which Potency is on record?
Answer: inconclusive: 22.4 µM [inhibitor, single point]

Question: For `Cc1ccc(C2=Nc3ccccc3N=C(C(Cl)Cl)C2)cc1`, which Potency is on record?
Answer: inconclusive: 22.4 µM [inhibitor, partial curve]

Question: For `C=CCn1c(C)cc(C(=O)CN2C(=O)NC3(CCCc4ccccc43)C2=O)c1C` (centres undefined), which Potency is on record?
Answer: inconclusive: 39.8 µM [inhibitor, single point]

Question: `COCc1cc(C)nc(N/N=C/c2ccc(-c3ccc(C(=O)O)c(Cl)c3)o2)c1C#N` was tested. Which Potency did it give?
Answer: inconclusive: 25.1 µM [inhibitor, single point]

Question: How did the Potency turn out when `O=C(CSCc1cccc(Cl)c1)NCc1ccc2c(c1)OCO2` was run?
Answer: inconclusive: 2 µM [inhibitor, partial curve, poor fit]

Question: How did the Potency turn out when `O=c1[nH]c(CN2CCN(Cc3ccc4c(c3)OCO4)CC2)nc2sc3c(c12)CCC3` was run?
Answer: inconclusive: 7.08 µM [inhibitor, single point]

Question: How did the Potency turn out when `CN(CCCNC(=O)c1cccn2c(=O)c3ccccc3nc12)Cc1ccccc1` was run?
Answer: inconclusive: 8.91 µM [inhibitor, single point]

Question: For `Cc1cc(NC(=O)c2cc([N+](=O)[O-])cc([N+](=O)[O-])c2C)no1`, which “activity, negative = inhibition” value is on record?
Answer: inactive: -1.26%

Question: `COc1ccc(CNC(=S)NCc2ccc(OC)cc2)cc1` was tested. Which Potency did it give?
Answer: active: 20 µM

Question: `Cn1c(=O)c2c(-c3ccccc3)n(-n3cnnc3)cc2n(C)c1=O` was tested. Which Potency did it give?
Answer: inconclusive: 44.7 µM [inhibitor, single point]

Question: For `O=C(N/N=C/c1cccnc1)c1ccc(CN2c3cccc4cccc(c34)S2(=O)=O)cc1`, which Potency is on record?
Answer: inconclusive: 35.5 µM [inhibitor, single point]

Question: With `COc1ccccc1CNC(=O)C1(NC(=O)Nc2ccc(C)cc2)CCCCC1` as the molecule, how does the “activity, negative = inhibition” value read?
Answer: inactive: -1.12%

Question: For `Cc1cccc2[nH]c3c(N4CCN(C(=O)c5ccco5)CC4)ncnc3c12`, which Potency is on record?
Answer: inconclusive: 31.6 µM [inhibitor, partial curve]

Question: How did the Potency turn out when `C/C(=N/NC(=O)c1ccc(C)nc1)c1ccc2c(c1)CCCC2` was run?
Answer: inconclusive: 25.1 µM [inhibitor, single point]

Question: With `CNC(=S)N/N=C(\C)c1ccc(Cl)c(Cl)c1` as the molecule, how does the “activity, negative = inhibition” value read?
Answer: inactive: 0.97%
